Assay results from PMC13083723 (Patterns, 2026).
Among all 5,400 compounds or so, about 190 (3.5%) showed an effect of 50% or more. The list shows a part of the results.

The compounds below were run on Vero-E6 (assay: primary screen, phospholipidosis by LipidTOX staining; higher = more effect of the substance). Details: 10 µM.
Procedure, shortened: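 Drug-induced phospholipidosis detected with HCS LipidTOX Red reagent in Vero-E6 cells. Compounds tested at 10 μM, with amiodarone (10 μM) as positive control and DMSO (0.1 v/v %) as vehicle.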

Row | SMILES | result_ITMP
1 | O=C1NC(=O)[C@@]2(CCOc3ccc(F)cc32)N1 | -0.1%
2 | N#CC(Cc1ccc(O)cc1)c1ccc(O)cc1 (stereo not drawn) | -1.76%
3 | C=CC(=O)N1CCN(C(=O)CNc2cc(I)c(Cl)cc2O)CC1 | 1.66%
4 | Oc1ccc(CC2NCCc3cc(O)c(O)cc32)cc1 (stereo not drawn) | -3.06%
5 | Cc1ncc[nH]1 | 0.94%
6 | Clc1ccc(C(Cn2ccnc2)OCc2c(Cl)cccc2Cl)c(Cl)c1 (stereo not drawn) | 1.21%
7 | COc1ccc2cc1Oc1cc3c(cc1OC)CC[N+](C)(C)[C@H]3Cc1ccc(cc1)Oc1c(OC)c(OC)cc3c1[C@@H](C2)[N+](C)(C)CC3 | -4.69%
8 | NC(=O)N1c2ccccc2C=Cc2ccccc21 | -1.44%
9 | O=c1ncccn1[C@@H]1O[C@H](CO)[C@@H](O)[C@H]1O | -5.42%
10 | O=C(CCCCCCNC(=O)c1cnc(N(c2ccccc2)c2ccccc2)nc1)NO | 1.06%
11 | CN(C)CCN(Cc1cccs1)c1ccccn1 | -0.5%
12 | CC(C)N(CCNC(=O)CN1CCCC1=O)C(C)C | -5.97%
13 | COc1c(O[C@@H]2O[C@H](CO)[C@@H](O)[C@H](O)[C@H]2O)cc2c(c1OC)-c1ccc(SC)c(=O)cc1[C@@H](NC(C)=O)CC2 | -10.8%
14 | NC(CO)(CO)CO | -3.2%
15 | COc1ccc(C2CNC(=O)NC2)cc1O[C@H]1C[C@@H]2CC[C@H]1C2 | -5.61%
16 | C[C@@H](N)[C@H]1CC[C@H](C(=O)Nc2ccncc2)CC1 | -1.53%
17 | O=C(Cn1ccnc1[N+](=O)[O-])NCCO | -7.98%
18 | O=C(NNC(=O)c1ccc(CNS(=O)(=O)c2ccc(F)c(Cl)c2)cc1)c1ccccc1 | 0.07%
19 | C[C@@H]1CN(CCCn2c3ccccc3c3ccccc32)C[C@H](C)N1 | 99.9%
20 | COC(=O)CC1CC(c2ccc(O)cc2)=NO1 (stereo not drawn) | 0.59%
21 | CNCC(=O)c1ccc(O)c(O)c1 | 0.92%
22 | Oc1cccc(Nc2ncc(F)c(Nc3cccc(O)c3)n2)c1 | -1.2%

Row | SMILES | result_ITMP
23 | O=c1cc(-c2ccc(O)cc2)oc2cc(O)cc(O)c12 | -0.77%
24 | O=C(NC(=O)c1c(F)cccc1F)Nc1cc(Cl)c(OC(F)(F)C(F)C(F)(F)F)cc1Cl (stereo not drawn) | 4.83%
25 | CCn1cc(C(=O)[O-])c(=O)c2cc3c(cc21)OCO3 | -4.34%
26 | C[C@H](NC(=O)c1sccc1OCc1ccc(Cl)cc1)c1ccccc1 | 1.11%
27 | Cc1ccc(C)c(Oc2ccncc2C(=O)N2CCN(C3CC3)c3ccccc32)c1 | -4.61%
28 | C#C[C@]1(O)CC[C@H]2[C@@H]3CCc4cc(OC)ccc4[C@H]3CC[C@@]21C | -2.71%
29 | COc1ccc(-c2ccc3c(N4CCOCC4)nc(N4C[C@@H](C)O[C@@H](C)C4)nc3n2)cc1CO | 1.47%
30 | CN(C)C(=O)c1ccc(S(=O)(=O)c2ccc(NC(=O)[C@@](C)(O)C(F)(F)F)c(Cl)c2)cc1 | 2.45%
31 | CN(C)CCCCSC(=N)N | -0.13%
32 | COc1ccc2cccc(CCNC(C)=O)c2c1 | -3.76%
33 | COc1cc(C=O)ccc1O | -2.56%
34 | CNc1ncc2cc(-c3cc(NC(=O)NCCC(C)(C)C)c(F)cc3C)c(C)nc2n1 | -7.16%
35 | Cc1[nH]c(/C=C2\C(=O)Nc3ccccc32)c(C)c1CCC(=O)O | 0.37%
36 | CC1(C)CC[C@]2(NC(=O)C(C)(F)F)CC[C@]3(C)C(C(=O)C=C4[C@@]5(C)C=C(C#N)C(=O)C(C)(C)[C@@H]5CC[C@]43C)C2C1 (stereo partly drawn) | -22.1%
37 | COc1cc[nH]c2ncc(C(=O)C(=O)N3CCN(C(=O)c4ccccc4)C[C@H]3C)c1-2 | -6.29%
38 | CN(CCOc1ccc(NS(C)(=O)=O)cc1)CCc1ccc(NS(C)(=O)=O)cc1 | -1.68%
39 | O=C(NO)C1(CS(=O)(=O)c2ccc(Oc3ccc(Cl)cc3)cc2)CCOCC1 | 0.16%
40 | CCN(CC)CCCC(C)Nc1c2ccc(Cl)cc2nc2ccc(OC)cc12 (stereo not drawn) | 110%
41 | COc1cc(OC)cc(N(CCNC(C)C)c2ccc3ncc(-c4cnn(C)c4)nc3c2)c1 | 55.2%
42 | Cc1nc(C)c(Cl)c(O)c1Cl | 6.4%
43 | CCc1cccc(CC)c1NC(=O)c1nn(C)c2c1CCc1cnc(Nc3ccc(C(=O)NC4CCN(C)CC4)cc3OC(F)(F)F)nc1-2 | 7.96%
44 | Cc1onc(-c2ccccc2Cl)c1C(=O)N[C@@H]1C(=O)N2[C@@H]1SC(C)(C)[C@@H]2C(=O)[O-] | 4.56%

Row | SMILES | result_ITMP
45 | CCCCCCCCCCCCCCCC[N+](C)(C)CCN(Cc1ccc(OC)cc1)c1ncccn1 | 1.84%
46 | CC(C)(C)NS(=O)(=O)c1cncc(-c2cc(F)c3nc(N)nn3c2)c1 | -0.73%
47 | C[C@@H]1CC[C@H]2[C@@H](C)C(=O)O[C@@H]3O[C@@]4(C)CC[C@@H]1[C@]32OO4 | -7.24%
48 | OC1(c2ccc(Cl)cc2)c2ccccc2C2=NCCN21 (stereo not drawn) | 4.81%
49 | NS(=O)(=O)c1ccc(C(=O)O)cc1 | 6.06%
50 | COc1cc2ncnc(Nc3ccc(Cl)cc3F)c2cc1OC | -0.91%
51 | Oc1ccc(Nc2nc(-c3ccc(Cl)cc3)cs2)cc1 | -1.8%
52 | CNC(=O)c1c(C)oc2cc(Oc3ncnc4cc(OC)c(OC)cc34)ccc12 | -2.33%
53 | NC(=O)[C@@H]1CC[C@@H]2CN1C(=O)N2OS(=O)(=O)[O-] | -0.26%
54 | N#Cc1ccc2[nH]c(O)c(-c3ccc(CN4CCOCC4)cn3)c2c1 | 4.84%
55 | N[C@@H]1CCCN(c2c(/C=C3\SC(=O)NC3=O)cccc2-c2ccccc2)C1 | 25.3%
56 | Cc1cccc(CCN2CCC(C(=O)c3ccc(NS(C)(=O)=O)cc3)CC2)n1 | -0.9%
57 | CO[C@H]1C[C@@H]2CC[C@@H](C)[C@@](O)(O2)C(=O)C(=O)N2CCCC[C@H]2C(=O)O[C@H]([C@H](C)C[C@@H]2CC[C@@H](O)[C@H](OC)C2)CC(=O)[C@H](C)/C=C(\C)[C@@H](O)[C@@H](OC)C(=O)[C@H](C)C[C@H](C)/C=C/C=C/C=C/1C | -0.12%
58 | CCOc1ccccc1C(N)=O | 17.2%
59 | CC[C@@]1(C2O[C@@H](C3O[C@@](O)(CO)[C@H](C)C[C@@H]3C)C[C@@H]2C)CC[C@H]([C@]2(C)CCC3(C[C@H](O)[C@@H](C)[C@@H]([C@H](C)[C@@H](OC)[C@H](C)C(=O)[O-])O3)O2)O1 (stereo partly drawn) | -2.43%
60 | C1CCC(NC2CCCCC2)CC1 | -9.39%
61 | CCC(=O)NO | -5.29%
62 | Cc1nc(Nc2n[nH]c3c2CN(C(=O)N[C@H](CN(C)C)c2ccccc2)C3(C)C)c2sccc2n1 | 1.28%
63 | CN1C(=O)CC(C)(c2ccccc2)C1=O (stereo not drawn) | 7.24%
64 | CCOc1ccn(-c2ccc(F)cc2)c(=O)c1C(=O)Nc1ccc(Oc2ccnc(N)c2Cl)c(F)c1 | -1.97%
65 | CCC(=O)NS(=O)(=O)c1ccc(-c2c(-c3ccccc3)noc2C)cc1 | -0.09%
66 | CC(C)=CCC/C(C)=C/CC/C(C)=C/C=C/C(C)=C/C(=O)O | 0.07%

Row | SMILES | result_ITMP
67 | CCn1cc(-c2ccnc3[nH]c(-c4cccc(CN(C)C)c4)cc23)c(-c2ccc(NC(=O)N(C)C)cc2)n1 | 27.7%
68 | CCCCCCN(CCCCCC)C(=O)Cc1c(-c2ccc(F)cc2)[nH]c2ccccc12 | -8.09%
69 | CCN(CC)CCNC(=O)c1ccc(NC(C)=O)cc1 | -8.7%
70 | N[C@@H]1CN(c2c(F)cc3c(=O)c(C(=O)O)cn([C@@H]4C[C@@H]4F)c3c2Cl)CC12CC2 | 2.48%
71 | CC(=O)NNC(=O)N1Cc2ccccc2Oc2ccc(Cl)cc21 | -0.36%
72 | O=C([O-])[C@H](O)[C@@H](O)[C@H](O)[C@H](O)CO | -4.67%
73 | CNC[C@H](O)c1cccc(O)c1 | -3.1%
74 | O=S(=O)([O-])CCSSCCS(=O)(=O)[O-] | -11.7%
75 | O=C1Nc2cc(Cl)c(Cl)cc2N2CCNCC12 (stereo not drawn) | 3.03%
76 | C[C@@H]1O[C@@H](O[C@@H]2[C@@H](O)[C@H](OCCc3ccc(O)c(O)c3)O[C@H](CO)[C@H]2OC(=O)/C=C/c2ccc(O)c(O)c2)[C@H](O)[C@H](O)[C@H]1O | 0.72%
77 | CC(C)C1=C2[C@H]3CC[C@@H]4[C@@]5(C)CC[C@H](OC(=O)CC(C)(C)C(=O)O)C(C)(C)[C@@H]5CC[C@@]4(C)[C@]3(C)CC[C@@]2([C@@H](O)CN(CCN(C)C)Cc2ccc(Cl)cc2)CC1=O | 0.12%
78 | CCOC(=O)[C@H](CCc1ccccc1)N[C@@H](C)C(=O)N1[C@H](C(=O)O)C[C@H]2CCCC[C@@H]21 | -5.12%
79 | O=C(O[C@@H]1Cc2c(O)cc(O)cc2O[C@@H]1c1cc(O)c(O)c(O)c1)c1cc(O)c(O)c(O)c1 | -2.35%
80 | CC(C)C[C@H](NC(=O)CNC(=O)c1cc(Cl)ccc1Cl)B(O)O | 2.32%
81 | CC(C)(C)NCC(O)COc1cccc2[nH]c(C#N)cc12 (stereo not drawn) | -4.94%
82 | CCN(CC)CCN(Cc1ccc(-c2ccc(C(F)(F)F)cc2)cc1)C(=O)Cn1c(SCc2ccc(F)cc2)nc(=O)c2c1CCC2 | 29.1%
83 | N#C[C@@H]1CCCN1C(=O)CNC12CC3CC(CC(O)(C3)C1)C2 | -5.49%
84 | CN(C)CCCSc1ccccc1NC(=O)/C=C/c1ccccc1 | 8.24%
85 | CN1C(=O)N(c2cc(Cl)cc(Cl)c2)C(=O)[C@]12CN(c1ccc(C(=O)O)cn1)C[C@H]2c1ccc(C#N)cc1 | -0.07%
86 | Cc1nc2cnc3ccc(C#Cc4cccnc4)cc3c2n1-c1ccc(C(C)(C)C#N)cc1 | -2.17%
87 | C[C@H]1[C@H](C)CC[C@]2(C(=O)O)CC[C@]3(C)C(=CC[C@@H]4[C@@]5(C)CC[C@H](O)C(C)(C)[C@@H]5CC[C@]43C)[C@H]12 | -0.84%
